Results are given in words; binding and its absence hold for the method and conditions named. Some binding calls cover weakened binding; strength is not graded here.
T1: AtIDD1 (Arabidopsis) (UniProt Q9LVQ7)
T1 sequence: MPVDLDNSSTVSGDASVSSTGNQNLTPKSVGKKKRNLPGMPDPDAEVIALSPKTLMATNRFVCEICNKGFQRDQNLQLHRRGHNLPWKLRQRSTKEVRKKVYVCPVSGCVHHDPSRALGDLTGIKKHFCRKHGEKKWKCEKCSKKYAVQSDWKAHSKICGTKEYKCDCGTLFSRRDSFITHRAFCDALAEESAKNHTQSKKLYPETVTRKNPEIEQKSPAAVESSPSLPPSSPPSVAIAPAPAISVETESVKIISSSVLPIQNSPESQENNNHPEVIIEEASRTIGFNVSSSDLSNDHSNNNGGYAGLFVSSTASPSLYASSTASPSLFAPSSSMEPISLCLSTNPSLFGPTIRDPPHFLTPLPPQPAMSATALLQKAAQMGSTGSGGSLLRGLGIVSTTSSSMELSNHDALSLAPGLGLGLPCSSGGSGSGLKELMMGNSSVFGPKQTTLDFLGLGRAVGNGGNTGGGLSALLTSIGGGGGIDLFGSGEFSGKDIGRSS

T2: AtIDD10 (Arabidopsis) (UniProt Q700D2)
T2 sequence: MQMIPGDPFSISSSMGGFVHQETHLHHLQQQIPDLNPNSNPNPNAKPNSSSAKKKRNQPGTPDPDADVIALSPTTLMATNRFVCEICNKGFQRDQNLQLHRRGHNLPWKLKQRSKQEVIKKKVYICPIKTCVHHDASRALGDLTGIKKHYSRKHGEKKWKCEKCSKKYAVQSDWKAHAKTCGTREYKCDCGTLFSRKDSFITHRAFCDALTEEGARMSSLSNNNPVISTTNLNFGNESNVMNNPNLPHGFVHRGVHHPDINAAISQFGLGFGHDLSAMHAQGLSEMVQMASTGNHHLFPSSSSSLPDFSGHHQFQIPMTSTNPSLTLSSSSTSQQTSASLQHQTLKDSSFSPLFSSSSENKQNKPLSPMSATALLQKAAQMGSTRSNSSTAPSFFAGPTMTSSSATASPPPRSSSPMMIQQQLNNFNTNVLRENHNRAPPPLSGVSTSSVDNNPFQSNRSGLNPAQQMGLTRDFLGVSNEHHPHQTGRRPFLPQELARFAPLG

T3: AtIDD14 (Arabidopsis) (UniProt Q9C9X7)
T3 sequence: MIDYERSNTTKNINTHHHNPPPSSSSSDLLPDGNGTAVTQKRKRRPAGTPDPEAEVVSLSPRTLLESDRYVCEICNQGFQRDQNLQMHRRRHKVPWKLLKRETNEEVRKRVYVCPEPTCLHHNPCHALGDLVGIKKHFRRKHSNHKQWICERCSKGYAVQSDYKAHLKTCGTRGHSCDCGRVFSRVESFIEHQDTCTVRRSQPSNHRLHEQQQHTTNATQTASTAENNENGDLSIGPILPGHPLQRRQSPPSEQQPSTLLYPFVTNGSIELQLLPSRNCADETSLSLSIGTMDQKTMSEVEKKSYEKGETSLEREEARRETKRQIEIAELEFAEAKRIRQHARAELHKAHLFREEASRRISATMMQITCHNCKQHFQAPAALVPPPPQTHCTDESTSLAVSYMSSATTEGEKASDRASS

T4: AtIDD6 (Arabidopsis) (UniProt Q8RWX7)
T4 sequence: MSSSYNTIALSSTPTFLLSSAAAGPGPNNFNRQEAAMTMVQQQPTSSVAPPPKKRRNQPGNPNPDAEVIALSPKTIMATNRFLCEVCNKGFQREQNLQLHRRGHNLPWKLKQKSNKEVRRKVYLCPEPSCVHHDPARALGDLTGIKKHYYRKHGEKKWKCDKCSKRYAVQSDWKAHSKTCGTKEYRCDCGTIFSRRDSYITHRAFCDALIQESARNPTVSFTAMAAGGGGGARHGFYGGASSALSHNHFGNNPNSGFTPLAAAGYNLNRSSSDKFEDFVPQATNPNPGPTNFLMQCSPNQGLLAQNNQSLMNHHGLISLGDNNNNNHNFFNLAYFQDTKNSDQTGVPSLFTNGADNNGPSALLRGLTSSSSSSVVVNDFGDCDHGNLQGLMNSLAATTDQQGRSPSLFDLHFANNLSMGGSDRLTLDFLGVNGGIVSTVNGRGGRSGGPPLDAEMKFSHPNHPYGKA

T5: OsID1 (rice) (UniProt B1B534)
T5 sequence: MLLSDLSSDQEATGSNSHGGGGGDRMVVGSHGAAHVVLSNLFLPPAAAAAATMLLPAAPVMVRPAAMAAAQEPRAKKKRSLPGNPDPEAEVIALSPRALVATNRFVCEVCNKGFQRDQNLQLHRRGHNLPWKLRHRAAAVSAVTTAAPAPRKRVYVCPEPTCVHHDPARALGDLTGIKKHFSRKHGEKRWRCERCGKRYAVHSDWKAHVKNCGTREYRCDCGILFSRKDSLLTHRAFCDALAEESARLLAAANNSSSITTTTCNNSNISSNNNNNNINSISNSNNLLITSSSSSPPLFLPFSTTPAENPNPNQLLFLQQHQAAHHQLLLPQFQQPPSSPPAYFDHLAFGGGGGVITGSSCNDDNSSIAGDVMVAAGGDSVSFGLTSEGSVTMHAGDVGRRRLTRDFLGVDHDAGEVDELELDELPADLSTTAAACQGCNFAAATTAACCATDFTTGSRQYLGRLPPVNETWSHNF

B1: SHORT-ROOT (protein, UniProt Q9SZF7 1-531)
chain: MDTLFRLVSLQQQQQSDSIITNQSSLSRTSTTTTGSPQTAYHYNFPQNDVVEECFNFFMDEEDLSSSSSHHNHHNHNNPNTYYSPFTTPTQYHPATSSTPSSTAAAAALASPYSSSGHHNDPSAFSIPQTPPSFDFSANAKWADSVLLEAARAFSDKDTARAQQILWTLNELSSPYGDTEQKLASYFLQALFNRMTGSGERCYRTMVTAAATEKTCSFESTRKTVLKFQEVSPWATFGHVAANGAILEAVDGEAKIHIVDISSTFCTQWPTLLEALATRSDDTPHLRLTTVVVANKFVNDQTASHRMMKEIGNRMEKFARLMGVPFKFNIIHHVGDLSEFDLNELDVKPDEVLAINCVGAMHGIASRGSPRDAVISSFRRLRPRIVTVVEEEADLVGEEEGGFDDEFLRGFGECLRWFRVCFESWEESFPRTSNERLMLERAAGRAIVDLVACEPSDSTERRETARKWSRRMRNSGFGAVGYSDEVADDVRALLRRYKEGVWSMVQCPDAAGIFLCWRDQPVVWASAWRPT
B2: SCARECROW-LIKE 3 (protein, UniProt Q9LPR8 1-482)
chain: MVAMFQEDNGTSSVASSPLQVFSTMSLNRPTLLASSSPFHCLKDLKPEERGLYLIHLLLTCANHVASGSLQNANAALEQLSHLASPDGDTMQRIAAYFTEALANRILKSWPGLYKALNATQTRTNNVSEEIHVRRLFFEMFPILKVSYLLTNRAILEAMEGEKMVHVIDLDASEPAQWLALLQAFNSRPEGPPHLRITGVHHQKEVLEQMAHRLIEEAEKLDIPFQFNPVVSRLDCLNVEQLRVKTGEALAVSSVLQLHTFLASDDDLMRKNCALRFQNNPSGVDLQRVLMMSHGSAAEARENDMSNNNGYSPSGDSASSLPLPSSGRTDSFLNAIWGLSPKVMVVTEQDSDHNGSTLMERLLESLYTYAALFDCLETKVPRTSQDRIKVEKMLFGEEIKNIISCEGFERRERHEKLEKWSQRIDLAGFGNVPLSYYAMLQARRLLQGCGFDGYRIKEESGCAVICWQDRPLYSVSAWRCRK
B3: RGA-LIKE 1 (protein, UniProt Q9C8Y3 1-511)
chain: MKREHNHRESSAGEGGSSSMTTVIKEEAAGVDELLVVLGYKVRSSDMADVAHKLEQLEMVLGDGISNLSDETVHYNPSDLSGWVESMLSDLDPTRIQEKPDSEYDLRAIPGSAVYPRDEHVTRRSKRTRIESELSSTRSVVVLDSQETGVRLVHALLACAEAVQQNNLKLADALVKHVGLLASSQAGAMRKVATYFAEGLARRIYRIYPRDDVALSSFSDTLQIHFYESCPYLKFAHFTANQAILEVFATAEKVHVIDLGLNHGLQWPALIQALALRPNGPPDFRLTGIGYSLTDIQEVGWKLGQLASTIGVNFEFKSIALNNLSDLKPEMLDIRPGLESVAVNSVFELHRLLAHPGSIDKFLSTIKSIRPDIMTVVEQEANHNGTVFLDRFTESLHYYSSLFDSLEGPPSQDRVMSELFLGRQILNLVACEGEDRVERHETLNQWRNRFGLGGFKPVSIGSNAYKQASMLLALYAGADGYNVEENEGCLLLGWQTRPLIATSAWRINRVE
B4: SLR1 (protein, UniProt Q7G7J6 1-625)
chain: MKREYQEAGGSSGGGSSADMGSCKDKVMAGAAGEEEDVDELLAALGYKVRSSDMADVAQKLEQLEMAMGMGGVSAPGAADDGFVSHLATDTVHYNPSDLSSWVESMLSELNAPLPPIPPAPPAARHASTSSTVTGGGGSGFFELPAAADSSSSTYALRPISLPVVATADPSAADSARDTKRMRTGGGSTSSSSSSSSSLGGGASRGSVVEAAPPATQGAAAANAPAVPVVVVDTQEAGIRLVHALLACAEAVQQENFAAAEALVKQIPTLAASQGGAMRKVAAYFGEALARRVYRFRPADSTLLDAAFADLLHAHFYESCPYLKFAHFTANQAILEAFAGCHRVHVVDFGIKQGMQWPALLQALALRPGGPPSFRLTGVGPPQPDETDALQQVGWKLAQFAHTIRVDFQYRGLVAATLADLEPFMLQPEGEADANEEPEVIAVNSVFELHRLLAQPGALEKVLGTVHAVRPRIVTVVEQEANHNSGSFLDRFTESLHYYSTMFDSLEGGSSGQAELSPPAAGGGGGTDQVMSEVYLGRQICNVVACEGAERTERHETLGQWRNRLGRAGFEPVHLGSNAYKQASTLLALFAGGDGYRVEEKEGCLTLGWHTRPLIATSAWRVAAA

Target: T1, AtIDD1 (Arabidopsis)
Experiment: two-hybrid; Gal4 yeast two-hybrid; baits in pGBT9, preys in pGAD424; yeast strain PJ69-4A; serial dilutions spotted on -LW and -LWH with an appropriate concentration of 3-AT; 3 days at 30 °C

binding	Binder
binds	B1
binds	B2
binds	B4

Binder	binding
B3	binds

Target: T2, AtIDD10 (Arabidopsis)
Experiment: as above

binding	Binder
binds	B1
binds	B2
binds weakly	B4

Binder	binding
B3	binds

Target: T3, AtIDD14 (Arabidopsis)
Experiment: as above

binding	Binder
no binding	B1
no binding	B2
no binding	B4

Binder	binding
B3	no binding

Target: T4, AtIDD6 (Arabidopsis)
Experiment: as above

binding	Binder
binds	B1
no binding	B2
no binding	B4

Binder	binding
B3	binds

Target: T5, OsID1 (rice)
Experiment: as above

binding	Binder
binds	B1
no binding	B2
binds weakly	B4

Binder	binding
B3	binds

— PMC7349898
